In the supplement of paper PMC8728848:
This is one part of the list.

Tests used:
Assay in all cases: glycan array binding signal (z-score within array); higher = stronger binding
Conditions in all cases: glycan notation: IUPAC condensed, linker removed
[1] = target: Fuc(a1-3)[Gal3S(b1-4)]Glc
In short: (§1)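 Columns mapping to the same glycan were averaged after glycan names were converted to IUPAC-condensed notation. The data come from 3228 arrays in the Consortium for Functional Glycomics database, limited to those with an available protein sequence. Binding is reported as a within-array Z-score averaged across arrays of one protein sequence and across linkers.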

[2] = target: Fuc(a1-3)[Gal3S(b1-4)]Glc6S
In short: as §1

[3] = target: Fuc(a1-3)[Gal3S(b1-4)]GlcNAc
In short: as §1

[4] = target: Fuc(a1-3)[Gal3S(b1-4)]GlcNAc6S
In short: as §1

[5] = target: Fuc(a1-3)[GalNAc(b1-4)]GlcNAc
In short: as §1

[6] = target: Fuc(a1-3)[GalNAc(b1-4)]GlcNAc6S
In short: as §1

[7] = target: Fuc(a1-3)[Neu5Ac(a2-3)]Gal(b1-4)GlcNAc(b1-3)GalNAc
In short: as §1

[8] = target: Fuc(a1-4)GlcNAc
In short: as §1

[9] = target: Fuc(b1-3)GlcNAc
In short: as §1

[10] = target: Gal(a1-2)Gal
In short: as §1

[11] = target: Gal(a1-3)Gal
In short: as §1

[12] = target: Gal(a1-3)Gal(b1-3)GlcNAc
In short: as §1

[13] = target: Gal(a1-3)Gal(b1-3)GlcNAc(b1-2)Man
In short: as §1

[14] = target: Gal(a1-3)Gal(b1-3)GlcNAc(b1-2)Man(a1-3)[Gal(a1-3)Gal(b1-3)GlcNAc(b1-2)Man(a1-6)]Man(b1-4)GlcNAc(b1-4)GlcNAc
In short: as §1

[15] = target: Gal(a1-3)Gal(b1-3)GlcNAc(b1-3)GalNAc
In short: as §1

[16] = target: Gal(a1-3)Gal(b1-3)GlcNAc(b1-6)GalNAc
In short: as §1

[17] = target: Gal(a1-3)Gal(b1-3)[Fuc(a1-4)]GlcNAc(b1-2)Man(a1-3)[Gal(a1-3)Gal(b1-3)[Fuc(a1-4)]GlcNAc(b1-2)Man(a1-6)]Man(b1-4)GlcNAc(b1-4)GlcNAc
In short: as §1

[18] = target: Gal(a1-3)Gal(b1-4)Glc
In short: as §1

[19] = target: Gal(a1-3)Gal(b1-4)GlcNAc
In short: as §1

[20] = target: Gal(a1-3)Gal(b1-4)GlcNAc(b1-2)Man
In short: as §1

[21] = target: Gal(a1-3)Gal(b1-4)GlcNAc(b1-2)Man(a1-3)[Gal(a1-3)Gal(b1-4)GlcNAc(b1-2)Man(a1-6)]Man(b1-4)GlcNAc(b1-4)GlcNAc
In short: as §1

[22] = target: Gal(a1-3)Gal(b1-4)GlcNAc(b1-3)GalNAc
In short: as §1

[23] = target: Gal(a1-3)Gal(b1-4)GlcNAc(b1-6)GalNAc
In short: as §1

[24] = target: Gal(a1-3)Gal(b1-4)[Fuc(a1-3)]GlcNAc
In short: as §1

[25] = target: Gal(a1-3)Gal(b1-4)[Fuc(a1-3)]GlcNAc(b1-2)Man(a1-3)[Gal(a1-3)Gal(b1-4)[Fuc(a1-3)]GlcNAc(b1-2)Man(a1-6)]Man(b1-4)GlcNAc(b1-4)GlcNAc
In short: as §1

[26] = target: Gal(a1-3)GalNAc
In short: as §1

[27] = target: Gal(a1-3)[Gal(a1-4)]Gal(b1-4)GlcNAc
In short: as §1

[28] = target: Gal(a1-4)Gal(b1-3)GlcNAc(b1-2)Man(a1-3)[Gal(a1-4)Gal(b1-3)GlcNAc(b1-2)Man(a1-6)]Man(b1-4)GlcNAc(b1-4)GlcNAc
In short: as §1

[29] = target: Gal(a1-4)Gal(b1-4)Glc
In short: as §1

[30] = target: Gal(a1-4)Gal(b1-4)GlcNAc
In short: as §1

[31] = target: Gal(a1-4)Gal(b1-4)GlcNAc(b1-2)Man(a1-3)[Gal(a1-4)Gal(b1-4)GlcNAc(b1-2)Man(a1-6)]Man(b1-4)GlcNAc(b1-4)GlcNAc
In short: as §1

[32] = target: Gal(a1-4)Gal(b1-4)GlcNAc(b1-3)Gal(b1-4)Glc
In short: as §1

[33] = target: Gal(a1-4)GlcNAc
In short: as §1

[34] = target: Gal(a1-6)Glc
In short: as §1

[35] = target: Gal(b1-2)Gal
In short: as §1

[36] = target: Gal(b1-3)Gal
In short: as §1

[37] = target: Gal(b1-3)Gal(b1-4)GlcNAc
In short: as §1

[38] = target: Gal(b1-3)Gal(b1-4)GlcNAc(b1-2)Man(a1-3)[Gal(b1-3)Gal(b1-4)GlcNAc(b1-2)Man(a1-6)]Man(b1-4)GlcNAc(b1-4)GlcNAc
In short: as §1

B1: MGL6A (Homo sapiens) (protein)
chain: MTRTYENFQYLENKVKVQGFKNGPLPLQSLLQRLCSGPCHLLLSLGLGLLLLVIICVVGFQNSKFQRDLVTLRTDFSNFTSNTVAEIQALTSQGSSLEETIASLKAEVEGFKQERQAVHSEMLLRVQQLVQDLKKLTCQVATLNNNGEEASTEGTCCPVNWVEHQDSCYWFSHSGMSWAEAEKYCQLKNAHLVVINSREEQNFVQKYLGSAYTWMGLSDPEGAWKWVDGTDYATGFQNWKPGQPDDWQGHGLGGGEDCAHFHPDGRWNDDVCQRPYHWVCEAGLGQTSQESH
Q: Which “glycan array binding signal (z-score)” value [1] does the source give for B1 here?
A: Its value is -0.269.

Q: And the “glycan array binding signal (z-score)” value [2]?
A: The value was 0.598.

Q: What about the “glycan array binding signal (z-score)” value [3] of the same binder?
A: Its value is -0.364.

Q: What about the “glycan array binding signal (z-score)” value [4] of the same binder?
A: The value was -0.308.

Q: And the “glycan array binding signal (z-score)” value [5]?
A: Its value is 1.89.

Q: And the “glycan array binding signal (z-score)” value [6]?
A: The value was 2.36.

Q: And the “glycan array binding signal (z-score)” value [7]?
A: Its value is -0.336.

Q: What about the “glycan array binding signal (z-score)” value [8] of the same binder?
A: Its value is -0.316.

Q: What about the “glycan array binding signal (z-score)” value [9] of the same binder?
A: The value was -0.263.

Q: What about the “glycan array binding signal (z-score)” value [10] of the same binder?
A: The value was -0.182.

Q: And the “glycan array binding signal (z-score)” value [11]?
A: The value was -0.263.

Q: What about the “glycan array binding signal (z-score)” value [12] of the same binder?
A: The value was -0.146.

Q: And the “glycan array binding signal (z-score)” value [13]?
A: Its value is -0.253.

Q: What about the “glycan array binding signal (z-score)” value [14] of the same binder?
A: Its value is -0.251.

Q: And the “glycan array binding signal (z-score)” value [15]?
A: The value was -0.279.

Q: What about the “glycan array binding signal (z-score)” value [16] of the same binder?
A: Its value is 4.29.

Q: And the “glycan array binding signal (z-score)” value [17]?
A: The value was -0.221.

Q: What about the “glycan array binding signal (z-score)” value [18] of the same binder?
A: Its value is -0.253.

Q: And the “glycan array binding signal (z-score)” value [19]?
A: The value was -0.256.

Q: And the “glycan array binding signal (z-score)” value [20]?
A: Its value is -0.268.

Q: What about the “glycan array binding signal (z-score)” value [21] of the same binder?
A: The value was -0.225.

Q: What about the “glycan array binding signal (z-score)” value [22] of the same binder?
A: The value was -0.274.

Q: And the “glycan array binding signal (z-score)” value [23]?
A: The value was 4.16.

Q: What about the “glycan array binding signal (z-score)” value [24] of the same binder?
A: Its value is -0.211.

Q: What about the “glycan array binding signal (z-score)” value [25] of the same binder?
A: Its value is -0.273.

Q: And the “glycan array binding signal (z-score)” value [26]?
A: Its value is -0.223.

Q: What about the “glycan array binding signal (z-score)” value [27] of the same binder?
A: The value was -0.293.

Q: And the “glycan array binding signal (z-score)” value [28]?
A: The value was -0.27.

Q: And the “glycan array binding signal (z-score)” value [29]?
A: The value was 0.34.

Q: And the “glycan array binding signal (z-score)” value [30]?
A: The value was -0.271.

Q: What about the “glycan array binding signal (z-score)” value [31] of the same binder?
A: The value was -0.244.

Q: What about the “glycan array binding signal (z-score)” value [32] of the same binder?
A: Its value is -0.232.

Q: And the “glycan array binding signal (z-score)” value [33]?
A: The value was -0.277.

Q: What about the “glycan array binding signal (z-score)” value [34] of the same binder?
A: The value was -0.333.

Q: What about the “glycan array binding signal (z-score)” value [35] of the same binder?
A: Its value is 0.049.

Q: What about the “glycan array binding signal (z-score)” value [36] of the same binder?
A: The value was -0.228.

Q: And the “glycan array binding signal (z-score)” value [37]?
A: The value was 0.278.

Q: And the “glycan array binding signal (z-score)” value [38]?
A: The value was -0.491.
